Assay results as given in patent US20260008835A1 (SHANGHAI REGENELEAD THERAPIES, published 2026).

T1: Human VEGF-A protein (human, UniProt P15692-4 27-191, limits assumed)
T1 sequence (looked up): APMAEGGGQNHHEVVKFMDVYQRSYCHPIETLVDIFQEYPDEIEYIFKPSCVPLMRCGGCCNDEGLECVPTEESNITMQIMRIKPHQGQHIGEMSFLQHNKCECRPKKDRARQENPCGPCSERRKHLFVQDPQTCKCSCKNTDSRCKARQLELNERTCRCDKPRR

B1: PR1144 (R1D2-R2D3-linker-R2D2 (C162V)-R2D3 (D276Q)-Fc) (Fc fusion)
chain: SDTGRPFVEMYSEIPEIIHMTEGRELVIPCRVTSPNITVTLKKFPLDTLIPDGKRIIWDSRKGFIISNATYKEIGLLTCEATVNGHLYKTNYLTHRQTNTIIDVVLSPSHGIELSVGEKLVLNCTARTELNVGIDFNWEYPSSKHQHKKLVNRDLKTQSGSEMKKFLSTLTIDGVTRSDQGLYTCAASSGLMTKKNSTFVRVHEKGGGGSSPFIASVSDQHGVVYITENKNKTVVIPCLGSISNLNVSLVARYPEKRFVPDGNRISWDSKKGFTIPSYMISYAGMVFCEAKINDESYQSIMYIVVVVGYRIYDVVLSPSHGIELSVGEKLVLNCTARTELNVGIDFNWEYPSSKHQHKKLVNRQLKTQSGSEMKKFLSTLTIDGVTRSDQGLYTCAASSGLMTKKNSTFVRVHEK[human IgG1 Fc with changes not printed]
B2: PR1146 (R1D2-R2D3-linker-R2D2 (C162V)-R2D3 (L289Y)-Fc) (Fc fusion)
chain: SDTGRPFVEMYSEIPEIIHMTEGRELVIPCRVTSPNITVTLKKFPLDTLIPDGKRIIWDSRKGFIISNATYKEIGLLTCEATVNGHLYKTNYLTHRQTNTIIDVVLSPSHGIELSVGEKLVLNCTARTELNVGIDFNWEYPSSKHQHKKLVNRDLKTQSGSEMKKFLSTLTIDGVTRSDQGLYTCAASSGLMTKKNSTFVRVHEKGGGGSSPFIASVSDQHGVVYITENKNKTVVIPCLGSISNLNVSLVARYPEKRFVPDGNRISWDSKKGFTIPSYMISYAGMVFCEAKINDESYQSIMYIVVVVGYRIYDVVLSPSHGIELSVGEKLVLNCTARTELNVGIDFNWEYPSSKHQHKKLVNRDLKTQSGSEMKKFYSTLTIDGVTRSDQGLYTCAASSGLMTKKNSTFVRVHEK[human IgG1 Fc with changes not printed]
B3: PR1147 (R1D2-R2D3-linker-R2D2 (C162V)-R2D3 (L313Y)-Fc) (Fc fusion)
chain: SDTGRPFVEMYSEIPEIIHMTEGRELVIPCRVTSPNITVTLKKFPLDTLIPDGKRIIWDSRKGFIISNATYKEIGLLTCEATVNGHLYKTNYLTHRQTNTIIDVVLSPSHGIELSVGEKLVLNCTARTELNVGIDFNWEYPSSKHQHKKLVNRDLKTQSGSEMKKFLSTLTIDGVTRSDQGLYTCAASSGLMTKKNSTFVRVHEKGGGGSSPFIASVSDQHGVVYITENKNKTVVIPCLGSISNLNVSLVARYPEKRFVPDGNRISWDSKKGFTIPSYMISYAGMVFCEAKINDESYQSIMYIVVVVGYRIYDVVLSPSHGIELSVGEKLVLNCTARTELNVGIDFNWEYPSSKHQHKKLVNRDLKTQSGSEMKKFLSTLTIDGVTRSDQGLYTCAASSGYMTKKNSTFVRVHEK[human IgG1 Fc with changes not printed]
B4: PR1148 (R1D2-R2D3-linker-R2D2 (C162V)-R2D3 (L277R/L289Y)-Fc) (Fc fusion)
chain: SDTGRPFVEMYSEIPEIIHMTEGRELVIPCRVTSPNITVTLKKFPLDTLIPDGKRIIWDSRKGFIISNATYKEIGLLTCEATVNGHLYKTNYLTHRQTNTIIDVVLSPSHGIELSVGEKLVLNCTARTELNVGIDFNWEYPSSKHQHKKLVNRDLKTQSGSEMKKFLSTLTIDGVTRSDQGLYTCAASSGLMTKKNSTFVRVHEKGGGGSSPFIASVSDQHGVVYITENKNKTVVIPCLGSISNLNVSLVARYPEKRFVPDGNRISWDSKKGFTIPSYMISYAGMVFCEAKINDESYQSIMYIVVVVGYRIYDVVLSPSHGIELSVGEKLVLNCTARTELNVGIDFNWEYPSSKHQHKKLVNRDRKTQSGSEMKKFYSTLTIDGVTRSDQGLYTCAASSGLMTKKNSTFVRVHEK[human IgG1 Fc with changes not printed]
B5: PR1149 (R1D2-R2D3-linker-R2D2 (C162V/Y221S/R222K)-R2D3-Fc) (Fc fusion)
chain: SDTGRPFVEMYSEIPEIIHMTEGRELVIPCRVTSPNITVTLKKFPLDTLIPDGKRIIWDSRKGFIISNATYKEIGLLTCEATVNGHLYKTNYLTHRQTNTIIDVVLSPSHGIELSVGEKLVLNCTARTELNVGIDFNWEYPSSKHQHKKLVNRDLKTQSGSEMKKFLSTLTIDGVTRSDQGLYTCAASSGLMTKKNSTFVRVHEKGGGGSSPFIASVSDQHGVVYITENKNKTVVIPCLGSISNLNVSLVARYPEKRFVPDGNRISWDSKKGFTIPSYMISYAGMVFCEAKINDESYQSIMYIVVVVGSKIYDVVLSPSHGIELSVGEKLVLNCTARTELNVGIDFNWEYPSSKHQHKKLVNRDLKTQSGSEMKKFLSTLTIDGVTRSDQGLYTCAASSGLMTKKNSTFVRVHEK[human IgG1 Fc with changes not printed]
B6: PR1150 (R1D2-R2D3-linker-R2D2 (C162V)-R2D3 (L313R)-Fc) (Fc fusion)
chain: SDTGRPFVEMYSEIPEIIHMTEGRELVIPCRVTSPNITVTLKKFPLDTLIPDGKRIIWDSRKGFIISNATYKEIGLLTCEATVNGHLYKTNYLTHRQTNTIIDVVLSPSHGIELSVGEKLVLNCTARTELNVGIDFNWEYPSSKHQHKKLVNRDLKTQSGSEMKKFLSTLTIDGVTRSDQGLYTCAASSGLMTKKNSTFVRVHEKGGGGSSPFIASVSDQHGVVYITENKNKTVVIPCLGSISNLNVSLVARYPEKRFVPDGNRISWDSKKGFTIPSYMISYAGMVFCEAKINDESYQSIMYIVVVVGYRIYDVVLSPSHGIELSVGEKLVLNCTARTELNVGIDFNWEYPSSKHQHKKLVNRDLKTQSGSEMKKFLSTLTIDGVTRSDQGLYTCAASSGRMTKKNSTFVRVHEK[human IgG1 Fc with changes not printed]
B7: PR1166 (R1D2-R2D3-linker-R2D2 (C162L)-R2D3-Fc) (Fc fusion)
chain: SDTGRPFVEMYSEIPEIIHMTEGRELVIPCRVTSPNITVTLKKFPLDTLIPDGKRIIWDSRKGFIISNATYKEIGLLTCEATVNGHLYKTNYLTHRQTNTIIDVVLSPSHGIELSVGEKLVLNCTARTELNVGIDFNWEYPSSKHQHKKLVNRDLKTQSGSEMKKFLSTLTIDGVTRSDQGLYTCAASSGLMTKKNSTFVRVHEKGGGGSSPFIASVSDQHGVVYITENKNKTVVIPCLGSISNLNVSLLARYPEKRFVPDGNRISWDSKKGFTIPSYMISYAGMVFCEAKINDESYQSIMYIVVVVGYRIYDVVLSPSHGIELSVGEKLVLNCTARTELNVGIDFNWEYPSSKHQHKKLVNRDLKTQSGSEMKKFLSTLTIDGVTRSDQGLYTCAASSGLMTKKNSTFVRVHEK[human IgG1 Fc with changes not printed]
B8: PR1101 (R1D2-R2D3-linker-R2D2 (M197Y)-R2D3-Fc) (Fc fusion)
chain: SDTGRPFVEMYSEIPEIIHMTEGRELVIPCRVTSPNITVTLKKFPLDTLIPDGKRIIWDSRKGFIISNATYKEIGLLTCEATVNGHLYKTNYLTHRQTNTIIDVVLSPSHGIELSVGEKLVLNCTARTELNVGIDFNWEYPSSKHQHKKLVNRDLKTQSGSEMKKFLSTLTIDGVTRSDQGLYTCAASSGLMTKKNSTFVRVHEKGGGGSSPFIASVSDQHGVVYITENKNKTVVIPCLGSISNLNVSLCARYPEKRFVPDGNRISWDSKKGFTIPSYMISYAGYVFCEAKINDESYQSIMYIVVVVGYRIYDVVLSPSHGIELSVGEKLVLNCTARTELNVGIDFNWEYPSSKHQHKKLVNRDLKTQSGSEMKKFLSTLTIDGVTRSDQGLYTCAASSGLMTKKNSTFVRVHEK[human IgG1 Fc with changes not printed]
B9: PR1109 (R1D2-R2D3-linker-R2D2 (V219I)-R2D3-Fc) (Fc fusion)
chain: SDTGRPFVEMYSEIPEIIHMTEGRELVIPCRVTSPNITVTLKKFPLDTLIPDGKRIIWDSRKGFIISNATYKEIGLLTCEATVNGHLYKTNYLTHRQTNTIIDVVLSPSHGIELSVGEKLVLNCTARTELNVGIDFNWEYPSSKHQHKKLVNRDLKTQSGSEMKKFLSTLTIDGVTRSDQGLYTCAASSGLMTKKNSTFVRVHEKGGGGSSPFIASVSDQHGVVYITENKNKTVVIPCLGSISNLNVSLCARYPEKRFVPDGNRISWDSKKGFTIPSYMISYAGMVFCEAKINDESYQSIMYIVVVIGYRIYDVVLSPSHGIELSVGEKLVLNCTARTELNVGIDFNWEYPSSKHQHKKLVNRDLKTQSGSEMKKFLSTLTIDGVTRSDQGLYTCAASSGLMTKKNSTFVRVHEK[human IgG1 Fc with changes not printed]
B10: PR1113 (R1D2-R2D3-linker-R2D2-R2D3 (N274F)-Fc) (Fc fusion)
chain: SDTGRPFVEMYSEIPEIIHMTEGRELVIPCRVTSPNITVTLKKFPLDTLIPDGKRIIWDSRKGFIISNATYKEIGLLTCEATVNGHLYKTNYLTHRQTNTIIDVVLSPSHGIELSVGEKLVLNCTARTELNVGIDFNWEYPSSKHQHKKLVNRDLKTQSGSEMKKFLSTLTIDGVTRSDQGLYTCAASSGLMTKKNSTFVRVHEKGGGGSSPFIASVSDQHGVVYITENKNKTVVIPCLGSISNLNVSLCARYPEKRFVPDGNRISWDSKKGFTIPSYMISYAGMVFCEAKINDESYQSIMYIVVVVGYRIYDVVLSPSHGIELSVGEKLVLNCTARTELNVGIDFNWEYPSSKHQHKKLVFRDLKTQSGSEMKKFLSTLTIDGVTRSDQGLYTCAASSGLMTKKNSTFVRVHEK[human IgG1 Fc with changes not printed]

Target: T1, Human VEGF-A protein
Test: cell-based or functional assay

Binder	VEGF-A IC50; VEGF-A-induced NFAT-RE-luc2P/KDR HEK293 reporter gene expression [pM]
B1	510
B2	980
B3	1160
B4	1490
B5	820
B6	810

Target: T1, Human VEGF-A protein
Test: cell-based or functional assay
Remark: another data set of the same source

Binder	VEGF-A IC50; VEGF-A-induced NFAT-RE-luc2P/KDR HEK293 reporter gene expression [pM]
B7	1120
B8	540
B9	180
B10	490
